Source: PubChem BioAssay AID1240 (Sanford-Burnham Center for Chemical Genomics, 2008)
The whole screen tested about 50,000 compounds, of which about 800 (1.6%) showed an effect of 50% or more. The list shows a part of the results.

Target: Bcl-2-like protein 10 (Homo sapiens) (UniProt Q9HD36)
Assay: Phenotype converters, Bcl-B/TR3 peptide binding displacement, primary biochemical FP (AID 1240);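 also: 0% = Bcl-B with tracer peptide and DMSO and 100% = tracer peptide lacking Bcl-B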
Settings: GST-Bcl-B / FITC-TR3 peptide fluorescence polarization; stronger effect = higher value; compound at 3.75 mg/L

UniProt Q9HD36, sequence (Q9HD36 whole entry, looked up): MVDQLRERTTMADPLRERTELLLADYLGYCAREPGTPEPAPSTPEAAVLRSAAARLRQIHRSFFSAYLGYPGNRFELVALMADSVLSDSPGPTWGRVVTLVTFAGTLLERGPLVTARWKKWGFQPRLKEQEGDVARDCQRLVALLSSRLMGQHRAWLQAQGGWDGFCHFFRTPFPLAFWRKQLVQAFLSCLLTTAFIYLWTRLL

Point of comparison: CCC(=O)Nc1ccc(NC(=O)c2ccc(Cl)c(Cl)c2)cc1, displacement 6.4%. Against it:
- COc1ccc(CCN2C(=O)CSC2c2ccccc2[N+](=O)[O-])cc1OC (stereo not drawn) — lower, 0%
- O=C(Nc1ccc([N+](=O)[O-])cc1)C(Sc1ccccc1)c1ccccc1 (stereo not drawn) — lower, 0%
- Cc1ccc(OCC(=O)N=Nc2c(O)[nH]c3c(Br)cc(Br)cc23)cc1 — lower, 2.8%
- COc1cccc(CNCc2ccc([N+](=O)[O-])cc2)c1OC — lower, 6.3%
- CCCOC(=O)c1c(NC(=O)c2cc3ccccc3oc2=O)sc2c1CCC(C)C2 (stereo not drawn) — higher, 26%
- Cc1cc(OCC(=O)Nc2nc(-c3ccccc3)cs2)ccc1Cl — higher, 7.2%
- Cc1ccc(OCC(=O)Nc2cccc(C(=O)Nc3ccccc3C(=O)O)c2)cc1C — higher, 10.3%
- Cc1cc(C)c(NC(=O)C(C)Sc2nc3ccccc3[nH]2)c(C)c1 (stereo not drawn) — lower, -8.4%
- O=C(Nc1ccccc1O)c1cccnc1 — lower, -4%
- COc1ccc(/C=N/Nc2ccc3ccccc3n2)cc1 — lower, -2.2%
- O=c1[nH]cnc2c1nnn2Cc1ccccc1 — higher, 12.2%
- O=C1c2ccccc2C(=O)N1CSc1nnc(SCN2C(=O)c3ccccc3C2=O)s1 — lower, -0.7%
- Cc1c(C(=O)OC(C)C)sc(NC(=O)/C=C/c2ccc3c(c2)OCO3)c1C(N)=O — lower, -1.9%
- FC(F)(F)c1ccc(/C=N/N2CCN(c3ccccc3)CC2)cc1 — lower, -8.4%
- COCCOC(=O)C1=C(C)NC2=C(C(=O)CC(C)(C)C2)C1c1cccc(OCc2ccccc2)c1 (stereo not drawn) — lower, -4%
- Cc1ccc(/C(O)=C/C(=O)C(=O)Nc2nccs2)cc1 — higher, 14.3%
- N#Cc1c(NC(=O)CSc2ccccc2)sc2c1CCCC2 — lower, -8.6%
- CC1CCN(C(=O)c2ccc([N+](=O)[O-])cc2NC(=O)c2cccs2)CC1 — lower, 2.6%
- Cc1ccc(-c2ccc(/C=C3\Sc4ccccc4C3=O)o2)c([N+](=O)[O-])c1 — lower, 5.6%
- Cc1ccc(C(C)C)cc1OCC(=O)N=Nc1c(O)n(C)c2ccccc12 — lower, 2.6%
- CCN1/C(=C\C=C\c2n(CCCS(=O)(=O)[O-])c3cc(C#N)ccc3[n+]2CC)Oc2ccc(-c3ccccc3)cc21 — higher, 14.4%
- CCn1c(C(O)c2ccc(C)cc2)nc2ccccc21 (stereo not drawn) — lower, -11.3%
- O=C(NCC1CCCO1)c1cnn2c1NC(c1ccco1)CC2C(F)(F)F (stereo not drawn) — lower, 2.8%
- CCN(CC)C(=O)N1c2ccccc2C=Cc2ccccc21 — higher, 6.8%
- Clc1ccc(-c2ncnn2-c2ccccc2Cl)cc1 — lower, -6%
- Cc1cc(=O)[nH]c(Nc2ccccc2)n1 — lower, -8%
- CCc1cccc(NC(=O)c2ccccc2Br)c1 — lower, 1.8%
- N/C(=N\N=C/c1ccc(F)cc1)N/N=C\c1ccc(F)cc1 — the same, 6.4%
- CC1(C)CC(=O)C2=C(C1)N(c1ccccc1)C1=C(C2)C(=O)CC(C)(C)C1 — higher, 7.8%
- CCN(CC)c1cc(C)c(C#N)c2nc3ccccc3n12 — lower, -0.4%
- Cn1c(O)c(C=NCC2(C)CC(O)CC(C)(C)C2)c(=O)n(C)c1=S (stereo not drawn) — lower, 3.2%
- CC(C)(C)c1ccc(OCCOc2ccc(C=C3C(=O)NC(=S)NC3=O)cc2)cc1 — lower, -27.9%
- O=C(CC(c1ccccc1)c1ccccc1)c1ccc2c(c1)OCCO2 — lower, 3.4%
- COc1cc(C)nc(Nc2nc(C)c3cc(C)ccc3n2)n1 — higher, 107%
- COc1cc(C=O)ccc1Oc1ccc([N+](=O)[O-])cc1 — lower, 5%
- C/C(=N\Nc1nc(C)cc(=O)[nH]1)c1ccc(C)cc1 — lower, -12.6%
- COC(=O)CCC(=O)Nc1cccc(C(N)=O)c1 — lower, -6%
- CCOc1cccc(/C=N/NC(=O)CSc2nc3ccccc3[nH]2)c1O — lower, -19.5%
- O=C(CSc1ncccc1C(=O)O)Nc1ccccc1 — higher, 14.6%
- O=C(CCc1ccccc1)Nc1cccc(Cl)c1Cl — lower, -10.1%
- COc1ccc(C2CC(=O)C3=C(C2)Nc2ccccc2NC3c2ccc(C(F)(F)F)cc2)cc1 (stereo not drawn) — lower, 3.4%
- COc1ccc(N(CC(=O)Nc2cc(C)cc(C)c2)S(C)(=O)=O)cc1 — higher, 8.5%
- COc1ccc(NS(=O)(=O)c2ccc(N/C=C\C(=O)c3ccccc3)cc2)nn1 — lower, 2.8%
- CC(C)CC(=O)NC(NC(=S)Nc1cccc(Br)c1)C(Cl)(Cl)Cl (stereo not drawn) — lower, -1.3%
- CCOc1ccc(C(=O)Nc2ccc(N(CC)CC)cc2)cc1[N+](=O)[O-] — higher, 17.7%
- COc1ccc(Cl)cc1NC(=O)COc1cc(C)c(Cl)c(C)c1 — lower, -5.9%
- O=C(Nc1ccc(OC(F)(F)C(F)F)cc1)c1ccc(Cl)c([N+](=O)[O-])c1 — lower, -3%
- COc1ccccc1N1CCN(/N=C\c2cc(Br)c(O)c(OC)c2)CC1 — higher, 10.8%
- CCc1ccc(/C(C)=N/Nc2cc(-n3cc(C)cn3)ncn2)cc1 — lower, -10.3%
- Cc1cc([N+](=O)[O-])ccc1NC(=S)NC(=O)/C=C/c1ccccc1 — higher, 9%
- COc1cc(/C=C2\C(=O)NC(=O)N(c3ccc(C)cc3)C2=O)cc(Cl)c1O — higher, 7.1%
- COc1cc(C(=O)NC(NC(=S)Nc2ccc(C(C)=O)cc2)C(Cl)(Cl)Cl)cc(OC)c1OC (stereo not drawn) — higher, 7.8%
- COCCOC(=O)C1=C(C)NC(=S)NC1c1ccccc1OC (stereo not drawn) — higher, 8.7%
- COc1ccc(Cc2noc(COc3ccc4ccccc4c3)n2)cc1OC — lower, -2.7%
- CCOc1cc(/C=C/c2[nH]c(=O)[nH]c(=O)c2[N+](=O)[O-])ccc1O — lower, 0%
- CC(=O)N/N=C/c1cc(C)n(-c2cc(Cl)ccc2Cl)c1C — lower, -0.2%
- Cc1oc2cc(Br)c(OS(C)(=O)=O)cc2c1C(=O)OC(C)C — higher, 8.8%
- CC(C)CCNC(=O)C(=O)Nc1cccc(Cl)c1 — lower, 3%
- Nc1nonc1C(=O)N/N=C/c1cn[nH]c1-c1ccccc1 — lower, -5.4%
- CCc1ccc(S(=O)(=O)n2nnc3ccccc32)cc1 — higher, 7.2%
- CCOC(=O)C1Cc2cc3c(cc2C1=O)CC(C(=O)OCC)C3=O (stereo not drawn) — higher, 19%
- O=C1OC(c2cccc(F)c2)=N/C1=C\c1cccs1 — higher, 19.4%
- O=C(NCc1ccccn1)C(=O)N/N=C/c1ccccc1C(F)(F)F — lower, -19.3%
- CCOc1ccc(C2=C/C(=C/c3ccc(Cl)cc3)C(=O)O2)cc1 — lower, -3.8%
- Cc1ccc2c(Cl)c(C(=O)Nc3ccccn3)sc2c1 — lower, -8.6%
- Cc1cccc(OCCOCCN2CCN(C)CC2)c1 — lower, -81.2%
- CC(C)(C)c1ccc(OCCOc2ccc(C=C3C(=O)NC(=O)NC3=O)cc2)cc1 — higher, 12.3%
- COc1c(O)ccc(/C=N/NC(=O)COc2c(Br)cc(Br)cc2Br)c1[N+](=O)[O-] — lower, 5.9%
- CCc1ccccc1NC(=O)/C(=C/c1ccccc1)c1ccccc1 — lower, 5.6%
- O=C(c1ccc(-c2ccccc2)cc1)N1CCN(Cc2ccc3c(c2)OCO3)CC1 — lower, -1.6%
- COc1ccc(CN2CCN(C3CCCC3)CC2)cc1Br — lower, -7.4%
- CCOC(=O)C1=C(O)/C(=C/c2ccc(O)cc2)SC1=Nc1cccc(Cl)c1 — lower, 0.1%
- CCN1/C(=C/C=Nc2ccccc2)Oc2ccccc21 — higher, 14.9%
- CCC(Sc1nc(-c2ccccc2)cc(-c2ccccc2)n1)C(=O)Nc1nnc(C)s1 (stereo not drawn) — higher, 13.2%
- O=C(c1ccc2c(c1)OCO2)N1CCC(CN2C(=O)c3cccc4cccc(c34)C2=O)CC1 — higher, 11.3%
- Clc1ccccc1-c1nc(-c2cccnc2)no1 — lower, 3.3%
- Cc1c(C(=O)NN2CCOCC2)cccc1[N+](=O)[O-] — lower, 4.2%
- CCC(=O)N1c2ccccc2NC2=C(C(=O)CC(c3ccc(OC)cc3)C2)C1c1ccccc1 (stereo not drawn) — higher, 8.5%
- COc1ccc(NS(=O)(=O)c2ccc(C)c([N+](=O)[O-])c2)cc1 — higher, 14.8%
- O=C(N/N=C/c1ccc(O)cc1O)c1ccc([N+](=O)[O-])cc1 — lower, -28.9%
- Cc1cccc(OCc2nnc(NC(=O)Nc3ccccc3)s2)c1 — lower, 1.3%
- Cc1cc(OCC(=O)N2CCCCC2)ccc1Br — lower, -7.4%
- COc1ccc(OC)c(N(CC(=O)Nc2ccc(C)cc2C)S(C)(=O)=O)c1 — higher, 8.6%
- Cc1ccc(C(=O)/C(=C\c2ccc(F)cc2)c2nc3ccccc3o2)cc1 — higher, 12.7%
- CCOc1ccc(NC(=O)CCCOc2ccccc2)cc1 — lower, -10.2%
- O=S(=O)(N/N=C/c1cccc(F)c1)c1ccccc1 — lower, -8.1%
- O=C(NCC1CCCO1)c1nn2c(c1Cl)NC(c1ccco1)CC2C(F)(F)F (stereo not drawn) — lower, 1.6%
- Cc1cc([N+](=O)[O-])ccc1NCc1ccco1 — lower, -0.7%
- CCCCOC(=O)c1cccc(-c2ccc(/C=C3\C(=O)N(c4ccc(S(N)(=O)=O)cc4)N=C3C)o2)c1 — higher, 7.4%
- COc1ccc(N2C(=O)C3C(C2=O)C2(C)C(=O)C3(C)C(c3ccccc3)=C2c2ccccc2)cc1 (stereo not drawn) — higher, 6.9%
- Cc1cccc2sc(NC(=O)/C=C\C(=O)O)nc12 — higher, 10.5%
- CCCOC(=O)c1ccc(NS(=O)(=O)c2c(C)cc(C)cc2C)cc1 — lower, 3.3%
- COc1ccc(C(=O)Nc2ccc(O)c(-c3nc4ccccc4o3)c2)cc1OC — lower, -0.4%
- CC1(C)N([O-])C(c2cccs2)=C[N+]1=O — higher, 14.4%
- COc1ccc2c(Cl)c(C(=O)Nc3ccc(N4CCOCC4)cc3)sc2c1 — lower, -14.4%
- Cn1c(=O)n(CCOc2ccc(Br)cc2)c2ccccc21 — higher, 14.7%
- C=CCc1cccc2cc(C(=O)Nc3ccc(OCC)cc3)c(=O)oc12 — higher, 53.1%
- O=C1NC(=S)N(c2ccc(Cl)cc2)C(=O)/C1=C/c1ccc(Oc2ccc([N+](=O)[O-])cn2)cc1 — lower, 4.4%
- CCOc1ccc(C(=O)NCc2cccnc2)cc1Br — lower, 0.7%
- CC1CCC(N2CCN(C(=O)c3ccc([N+](=O)[O-])cc3)CC2)CC1 (stereo not drawn) — lower, -7.5%
- O=C(O)CCC(=O)NNc1nc(-c2ccccc2)c2cc(Br)ccc2n1 — lower, -9.3%
- CCOC(=O)C1=C(O)/C(=C/c2ccc(N(CC)CC)cc2)SC1=Nc1ccccc1 — lower, -95.4%
- CC(=O)N1c2ccc(N)cc2C(C)(c2ccccc2)CC1(C)C (stereo not drawn) — lower, -6%
- O=C(Nc1ccc(OC(F)(F)F)cc1)c1cc(I)ccc1Cl — lower, 4.8%
- COc1ccc(NC(=O)CSc2nc(C)cc(C)n2)cc1 — lower, 5.2%
- COc1ccc(CC(=O)Nc2sc3c(c2C(=O)Nc2ccccc2C)CCCCC3)cc1 — lower, 1.9%
- CC(C)(C)c1cc(Cn2cc3cc([N+](=O)[O-])ccc3n2)cc(C(C)(C)C)c1O — lower, -14.3%
